In PubChem BioAssay AID1461 (National Center for Advancing Translational Sciences (NCATS), 2008):
Among all 220,000 compounds or so, about 2,300 (1%) were called active. The shares of active, inactive and inconclusive entries below differ from those in the screen. The call rests on the fitted dose curve; in most records, active means well fitted inhibition curve with a large enough effect; inconclusive means small, poorly fitted or top-dose-only effect, or effect the other way; inactive means no such curve, though single readings can be large or run the other way. Potencies of inconclusive entries are left out as doubtful fits.

Target: Neuropeptide S receptor (Homo sapiens) (UniProt Q6W5P4)
Test: qHTS Assay for Antagonists of the Neuropeptide S Receptor: cAMP Signal Transduction; further: nearly all actives have a fitted effect of over 50% in size
Details: CHO-NPSR cells, cAMP TR-FRET, antagonist mode; activity change, negative = inhibition: at 38.3 µM (top of the series) unless noted
On the % scale 0 is the no-effect control and ±100 the full control effect; potency means the concentration at half of the fitted maximal effect; tags describe the fitted curve by direction and shape.

UniProt Q6W5P4, sequence (Q6W5P4 whole entry, looked up): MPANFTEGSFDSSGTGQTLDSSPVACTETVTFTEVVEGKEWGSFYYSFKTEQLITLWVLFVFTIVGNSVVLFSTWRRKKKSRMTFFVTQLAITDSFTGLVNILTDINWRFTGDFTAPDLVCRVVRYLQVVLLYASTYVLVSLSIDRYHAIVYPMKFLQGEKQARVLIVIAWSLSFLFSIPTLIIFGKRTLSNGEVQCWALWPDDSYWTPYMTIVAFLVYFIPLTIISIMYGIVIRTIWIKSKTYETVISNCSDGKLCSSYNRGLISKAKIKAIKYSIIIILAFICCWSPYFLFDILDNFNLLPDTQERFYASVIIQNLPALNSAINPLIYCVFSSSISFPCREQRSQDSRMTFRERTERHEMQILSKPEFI

| Structure (SMILES) | Potency | activity change, negative = inhibition |
| --- | --- | --- |
| O=[N+]([O-])c1cnc(Sc2ccncn2)s1 | inconclusive [activator, partial curve] | – |
| Cc1cc(C)nc(Nc2nc(=O)c3ccccc3s2)n1 | inconclusive [activator, single point] | – |
| Cc1ccc(/C=C/C(=O)Nc2ccc([N+](=O)[O-])cc2)o1 | – | inactive: -21.9% [at 46.1 µM] |
| COc1ccccc1-c1nc(C#N)c(N2CCN(c3cccc(Cl)c3)CC2)o1 | inconclusive [inhibitor, partial curve] | – |
| CCSc1nc2c(c(=O)n1Cc1ccccc1)SC(C)C2 (stereo unspecified) | inconclusive [activator, full curve] | – |
| Cc1ccc(NC(CNS(=O)(=O)c2ccc(Cl)cc2)c2ccccc2)cc1 (stereo unspecified) | inconclusive [inhibitor, single point] | – |
| Nc1ccccc1C(=O)NNc1c2ccccc2nc2ccccc12 | inconclusive [inhibitor, single point] | – |
| CC1(C)OC(=O)C(=CNc2ccccc2F)C(=O)O1 | – | inactive: -6.99% [at 46.1 µM] |
| COc1cc(NS(=O)(=O)c2ccc(OC)c(C)c2C)c(OC)cc1Cl | active: 20 µM | – |
| Cc1cc(C)c2c(N)c(C(=O)NN)sc2n1 | – | inactive: -20.8% |
| COc1cc(Cl)ccc1NC(=O)COc1ccccc1C(=O)N1CCN(c2ccc(O)cc2)CC1 | inconclusive [inhibitor, partial curve] | – |
| COc1ccccc1C(C[N+](=O)[O-])c1c[nH]c2ccccc12 (stereo unspecified) | inconclusive [inhibitor, single point] | – |
| S=c1[nH]cc(-c2ccc(Cl)cc2)n1Cc1ccccc1 | inconclusive [activator, single point] | – |
| NC(=O)c1c(NC(NC(=O)c2ccco2)C(=O)c2ccc(Cl)cc2)sc2c1CCCC2 (stereo unspecified) | – | inactive: -30% [at 46.1 µM] |
| CC(=O)c1sc2nc(CSc3nnnn3-c3ccccc3)[nH]c(=O)c2c1C | – | inactive: -12.8% |
| O=C(C#Cc1ccccc1)c1ccc([N+](=O)[O-])cc1 | inconclusive [inhibitor, single point] | – |
| CN(Cc1ccccc1)Cc1nc2c(c(=O)n(C)c(=O)n2C)n1Cc1ccccc1Cl | inconclusive [inhibitor, partial curve] | – |
| O=c1c(Cl)c(NCc2ccccc2Cl)cnn1C12CC3CC(CC(C3)C1)C2 | inconclusive [inhibitor, single point] | – |
| CN1CCc2nc3sc(C(=O)C45CC6CC(CC(C6)C4)C5)c(N)c3cc2C1 | – | inactive: -16.4% [at 46.1 µM] |
| Oc1ccc(N=Nc2cccc(C(F)(F)F)c2)cc1C=Nc1ccc(N2CCOCC2)cc1 | active: 7.94 µM | – |
| COc1cc(NC(=O)c2cc(C(C)C)on2)c(OC)cc1Cl | inconclusive [inhibitor, single point] | – |
| CCN1C(=O)/C(=C/c2nc3ccccc3c(=O)n2-c2ccc(C)cc2)c2ccccc21 | inconclusive [inhibitor, partial curve] | – |
| Cc1c(Cl)cccc1NCC(=O)Nc1ccc(Cl)cc1F | inconclusive [inhibitor, single point] | – |
| Cc1c(N2C(=O)CSC2c2ccc(F)cc2)c(=O)n(-c2ccccc2)n1C (stereo unspecified) | – | inactive: 2.56% |

| Structure (SMILES) | Potency | activity change, negative = inhibition |
| --- | --- | --- |
| CCOc1cc(NC(=S)NCC2CCCO2)c(OCC)cc1NC(=O)c1ccccc1C (stereo unspecified) | – | inactive: -19.5% [at 46.1 µM] |
| CC(C)(C)NC(=O)COC(=O)c1ccc(Cl)cc1O | – | inactive: 7.51% |
| COc1ccc(/C=C2/N=C(c3cccs3)OC2=O)cc1OC(C)C | inconclusive [inhibitor, partial curve] | – |
| N#Cc1c(NC(=O)COC(=O)c2ccc(F)cc2)sc2c1CCC2 | – | inactive: -5.69% [at 46.1 µM] |
| CC1(c2ccccc2)CC(C)(C)N2C(=O)/C(=C3\SC(=S)NC3=O)c3cccc1c32 (stereo unspecified) | active: 5.01 µM | – |
| N#CC1=C(N)OC2=C(C(=O)CC(c3ccco3)C2)C1c1ccc(OCc2c(F)cccc2Cl)cc1 (stereo unspecified) | inconclusive [inhibitor, partial curve] | – |
| CCCCn1cnc2c(c1=O)c1nc3ccccc3nc1n2Cc1ccc2c(c1)OCO2 | inconclusive [activator, partial curve] | – |
| CCn1c(SCC(=O)Nc2cccc(C)c2)nc2nc3c(cc2c1=O)COC(C)(C)C3 | inconclusive [activator, partial curve] | – |
| O=C(c1ccco1)n1nc(-c2ccccc2)nc1SCc1ccccc1 | – | inactive: -9.14% [at 46.1 µM] |
| Cc1nc2ncnn2c(N2CCC(C(=O)NC3CCCC3)CC2)c1Cc1ccccc1 | – | inactive: -8.59% [at 46.1 µM] |
| COc1ccc(C(=O)Nn2c(SCC(=O)c3ccccc3)nc3ccccc3c2=O)cc1 | inconclusive [inhibitor, partial curve, poor fit] | – |
| CCN1C(=O)/C(=C/C=C2\C=CN(CC)c3ccccc32)SC1=S | active: 3.16 µM | – |
| COC(=O)c1ccc(Oc2ccc(C(C)(C)C)cc2)c([N+](=O)[O-])c1 | inconclusive [inhibitor, partial curve] | – |
| Cc1nn2c(NCCN(C)C)c3c(nc2c1-c1ccccc1)CCCC3 | inconclusive [activator, single point] | – |
| Cc1ccccc1N=C(NOCc1ccccc1)c1nonc1N | inconclusive [inhibitor, partial curve] | – |
| O=C(Nc1cccc(-c2nnc(-c3ccccc3)o2)c1)c1ccco1 | inconclusive [inhibitor, single point] | – |
| CCC(C)(C)n1nnnc1C(C(C)C)N(Cc1ccco1)Cc1cc2cc3c(cc2[nH]c1=O)OCO3 (stereo unspecified) | inconclusive [inhibitor, partial curve] | – |
| CC1C/C(=C/c2cccn2C)C(=O)/C(=C/c2cccn2C)C1 (stereo unspecified) | inconclusive [inhibitor, partial curve, poor fit] | – |
| CCOC(=O)Cc1csc(NC(=O)NC2(C(F)(F)F)Oc3cc(Cl)c(Cl)cc3O2)n1 | – | inactive: 3.94% [at 46.1 µM] |
| CC1CCN(c2nc(-c3ccco3)c3c(c2C#N)CC(C)(C)OC3)CC1 | inconclusive [inhibitor, single point] | – |
| CCN(CC)C(=O)CSc1nc2ccc(NC(=O)CSc3nnc(COc4ccccc4C)n3C)cc2s1 | – | inactive: -21.9% [at 46.1 µM] |
| CCN1CCc2c(C#N)c(N3CCCCC3)nc(NCc3ccccc3)c2C1 | inconclusive [inhibitor, single point] | – |
| COc1cc(/C=N/n2cnn(Cc3ccccc3Cl)c2=S)cc(OC)c1OC | – | inactive: -47.6% |
| COc1ccc(C(=O)Nc2nc(C)c3cc4c(cc3n2)OCO4)cc1 | inconclusive [inhibitor, single point] | – |

| Structure (SMILES) | Potency | activity change, negative = inhibition |
| --- | --- | --- |
| COc1ccccc1-c1cn[nH]c1-c1ccc(OCc2ccc(F)cc2)cc1O | inconclusive [inhibitor, single point] | – |
| O=C(/C=C/c1ccc(O)cc1)c1ccc(NC2=C(N3CCCCC3)C(=O)c3ccccc3C2=O)cc1 | inconclusive [inhibitor, single point] | – |
| CCCCC(CC)CNC(=O)CN(C)S(=O)(=O)c1cccc2nsnc12 (stereo unspecified) | – | inactive: -22.9% [at 46.1 µM] |
| Cc1cc(NN)nc(NS(=O)(=O)c2ccccc2)n1 | – | inactive: -24.4% |
| CCc1ccc(/C=N/NC(=O)c2cc(C3CC3)nc3ccccc23)s1 | – | inactive: -0.878% [at 46.1 µM] |
| CCOc1ccc(C2C(C(=O)c3ccco3)=C(O)C(=O)N2CCN(C)C)cc1 (stereo unspecified) | – | inactive: 7.75% [at 46.1 µM] |
| Cc1ccc(S(=O)(=O)c2cc3c(=O)n4cccc(C)c4nc3n(CC3CCCO3)c2=N)cc1 (stereo unspecified) | inconclusive [inhibitor, partial curve] | – |
| COc1ccc(-c2c([C@H]3[C@H]4C=CC[C@@H](C)[C@@H]4C(=O)N3Cc3ccccc3)ccc3ccccc23)cc1 | inconclusive [inhibitor, single point] | – |
| Cc1nc2ccccn2c1C(=O)N=Nc1c(O)n(CCC(C)C)c2ccccc12 | inconclusive [inhibitor, partial curve] | – |
| CCn1c(=NC(=O)CSC(C)=O)sc2ccccc21 | inconclusive [inhibitor, single point] | – |
| Cn1c(N2CCN(C(=O)NCc3ccccc3)CC2)nc2ccccc21 | – | inactive: -12% [at 46.1 µM] |
| COc1cc(/C=N/N2C(=O)c3ccccc3NC2(C)c2cccc([N+](=O)[O-])c2)cc(Br)c1O (stereo unspecified) | inconclusive [inhibitor, partial curve] | – |
| NC(=O)C1(N2CCCCC2)CCN(C(=O)Nc2ccccc2C(F)(F)F)CC1 | – | inactive: -8.44% [at 46.1 µM] |
| COC(=O)c1ccc(CSc2nc3c(c(=O)n2-c2ccc(C)cc2)SCC3)o1 | – | inactive: -27.3% [at 46.1 µM] |
| N#Cc1nc(Cc2ccccc2)oc1N1CCN(c2ccccc2)CC1 | inconclusive [inhibitor, partial curve] | – |
| COc1ccc(C2c3c(ncn(Cc4ccco4)c3=N)Oc3ccc4ccccc4c32)cc1 (stereo unspecified) | inconclusive [inhibitor, single point] | – |
| COc1cc2c(CCNC(C)=O)c[nH]c2cc1O | inconclusive [inhibitor, partial curve] | – |
| O=C(Nc1ccc(Cl)cn1)C1C(c2ccccc2)C1(Cl)Cl (stereo unspecified) | inconclusive [activator, single point] | – |
| CCOC(=O)c1cc(-c2ccccc2)sc1NC(=O)CSc1nncs1 | inconclusive [inhibitor, single point] | – |
| COc1ccccc1-c1cn[nH]c1-c1ccc(OCc2ccccc2F)cc1O | inconclusive [activator, single point] | – |
| O=C(c1ccccc1[N+](=O)[O-])N1CCc2ccccc2C1 | – | inactive: 12.7% |
| CC(C)N=c1scc(-c2cccs2)n1/N=C/c1ccc(O)c(O)c1O | inconclusive [inhibitor, single point] | – |
| Cc1nc(NC(=O)c2ccc(-c3cc4ccccc4oc3=O)cc2)ccc1Br | inconclusive [inhibitor, full curve, poor fit] | – |
